Where a name gives a salt, the structure may show the parent alone. Read-outs that look alike come from different tables or passages of the source.
Columns and labels:
Experiment in all cases: microbe, parasite or virus in culture
HIV-1 K103N RT mutant = test system: HIV-1 K103N RT mutant
Text: (§1) The HeLa cell assay described herein is a modified version of Kimpton J. and Emerman M., Detection of replication-competent and pseudotyped human immunodeficiency virus with a sensitive cell line on the basis of activation of an integrated β-galactosidase gene, J. Virol. 66:2232-2239 (1992), in which HIV-1 infection is detected by the activation of an HIV-LTR driven β-galactosidase reporter that is integrated into the genome of a CD4+ HeLa cell line. Quantitation of β-galactosidase is achieved by measuring the activation of a chemiluminescent substrate (Applied Biosystems). The concentration of each compound required to inhibit 50% (IC50) of the HIV-1 induced β-galactosidase signal, relative to untreated controls, is determined for each isogenic, recombinant virus.
(§2) HeLa-CD4-LTR-β-gal cells are propagated in DMEM containing 10% fetal bovine serum+0.2 mg/ml geneticin+0.1 mg/ml hygromycin B. Cells are split by standard trypsinization when confluency reaches 80% (roughly every 2 to 3 days).
(§3) DNA encoding the HIV-1 reverse transcriptase is subcloned from a M13 phage into a general shuttle vector, pBCSK+, as a −1.65 kbp EcoRI/HindIII ended DNA fragment. The HIV DNA insert of the resulting plasmid, is completely sequenced on both strands prior to use in site directed mutagenesis experiments. Specific amino acid replacements are made using Stratagene Quick Change reagents and mutagenic oligonucleotides. The mutations that are made include K103N, V106A, Y181C, and Y188L. Following mutagenesis, the entire mutant RT coding sequence is verified by sequencing both DNA strands.
(§4) K103N, V106A, Y181C, and Y188L mutant HIV-1 strains and wild type strains are isolated by a modified Recombinant Virus Assay (Kellam P. and Larder B., Recombinant virus assay: a rapid, phenotypic assay for assessment of drug susceptibility of human immunodeficiency virus type 1 isolates, Antimicrobial Agents and Chemotherapy, 38:23-30, 1994). Ten million MT4 T-cells (maintained in RPMI containing 10% fetal bovine serum, split 1:5 every 5 to 6 days) are co-transfected with EcoRI/HindIII digested mutant RT plasmid and Bst EII-digested HIV-1HXB2ΔRT DNA in the presence of DMRIE-C transfection reagent (Gibco) according to supplier's recommended protocol. Each mutant RT coding sequence is crossed into the RT-deleted HIV-1 viral DNA backbone by in vivo homologous recombination. Transfected cell cultures are expanded and monitored until syncitia formation and CPE are extensive. Virus is harvested by clear spin of the culture supernatants, filtration of the supernatants through a 0.45 micron membrane and frozen at −80° C. as primary stocks. Recombinant progeny virus is sequenced in the RT region to confirm the mutant genotype. Some virus stocks require further expansion by infection of MT4 cells, harvested as above and stored as frozen aliquots. All stocks are titered in HeLa MAGI cells for assay.
(§5) HIV-1 virus stocks are titered in the HeLa-CD4-LTR-β-gal assay system to establish the appropriate infecting dose. The endpoint for this assay is relative light units (RLUs), and titer is recorded as RLUs/ml. Virus stocks are diluted (serial 1:2) into DMEM containing 10% FBS plus 25 ug/ml DEAE-dextran and assayed as described in the “Experimental Protocol” section below without test compound.
(§6) • 1. Seed 96-well plate(s) (Costar #3904) with HeLa-CD4-LTR-β-gal @ 3×10^3 cells per well in 100 ul DMEM containing 10% FBS. Incubate @ 37° C., 5% CO2 overnight. Day 2 • 1. Thaw virus stock in a water bath (room temperature) and dilute into DMEM+10% FBS+25 ug/ml DEAE-dextran to an infectious dose of approximately 10 million RLU/ml. The dilution of virus will vary depending on the titer of the stock (see “Titering of virus stocks” above). • 2. Remove all of the media from every well with an 8 or 12-channel manifold aspirator. Work with one plate at a time to prevent drying of the HeLa-CD4-LTR-β-gal monolayer. Add 35 ul (approximately 350,000 total RLUs) of diluted virus to each well. […]

HIV-1 V106A RT mutant = test system: HIV-1 V106A RT mutant
Text: as §1, §2, §3, §4, §5, §6

HIV-1 Y181C RT mutant = test system: HIV-1 Y181C RT mutant
Text: as §1, §2, §3, §4, §5, §6

[1] = Human immunodeficiency virus 1, HeLa, read-out: K103N activity level, HeLa-CD4-LTR-β-gal cells, K103N virus
[2] = Human immunodeficiency virus 1, HeLa, read-out: V106A activity level, HeLa-CD4-LTR-β-gal cells, V106A virus
[3] = Human immunodeficiency virus 1, HeLa, read-out: Y181C activity level, HeLa-CD4-LTR-β-gal cells, Y181C virus

Row | Compound | IC50 (HIV-1 K103N RT mutant; [1]) [nM] | IC50 (HIV-1 V106A RT mutant; [2]) [nM] | IC50 (HIV-1 Y181C RT mutant; [3]) [nM] | IC50 (HIV-1 K103N RT mutant; read-out: K103N activity level, HeLa-CD4-LTR-β-gal cells, K103N virus, trifluoroacetate) [nM] | IC50 (HIV-1 V106A RT mutant; read-out: V106A activity level, HeLa-CD4-LTR-β-gal cells, V106A virus, trifluoroacetate) [nM] | IC50 (HIV-1 Y181C RT mutant; read-out: Y181C activity level, HeLa-CD4-LTR-β-gal cells, Y181C virus, trifluoroacetate) [nM]
1 | N#Cc1cc(Cl)cc(Oc2c(Cl)ccc(CNC(=O)c3cc4ccc(OCc5ccccc5)cc4[nH]3)c2F)c1 [Example 43, N-({4-chloro-3-[(3-chloro-5-cyanophenyl)oxy]-2-fluorophenyl}methyl)-6-[(phenylmethyl)oxy]-1H-indole-2-carboxamide] | 10 to 1000 | > 1000 | > 1000 | – | – | –
2 | N#Cc1cc(Cl)cc(Oc2c(Cl)ccc(CNC(=O)c3cc4c5c(ccc4[nH]3)N(C(N)=O)CC5)c2F)c1 [Example 44, N^2-({4-chloro-3-[(3-chloro-5-cyanophenyl)oxy]-2-fluorophenyl}methyl)-7,8-dihydropyrrolo[3,2-e]indole-2,6(3H)-dicarboxamide] | < 10 | 10 to 1000 | 10 to 1000 | – | – | –
3 | Cn1c(C(=O)NCc2ccc(Cl)c(Oc3cc(Cl)cc(C#N)c3)c2F)cc2ccccc21 [Example 45, N-({4-chloro-3-[(3-chloro-5-cyanophenyl)oxy]-2-fluorophenyl}methyl)-1-methyl-1H-indole-2-carboxamide] | > 1000 | > 1000 | > 1000 | – | – | –
4 | COc1cc2cc(C(=O)NCc3ccc(Cl)c(Oc4cc(Cl)cc(C#N)c4)c3F)[nH]c2cn1 [Example 46, N-({4-chloro-3-[(3-chloro-5-cyanophenyl)oxy]-2-fluorophenyl}methyl)-5-(methyloxy)-1H-pyrrolo[2,3-c]pyridine-2-carboxamide trifluoroacetate] | 10 to 1000 | 10 to 1000 | 10 to 1000 | – | – | –
5 | N#Cc1cc(Cl)cc(Oc2c(Cl)ccc(CNC(=O)c3cc4ccccc4o3)c2F)c1 [Example 47, N-({4-chloro-3-[(3-chloro-5-cyanophenyl)oxy]-2-fluorophenyl}methyl)-1-benzofuran-2-carboxamide trifluoroacetate] | 10 to 1000 | > 1000 | 10 to 1000 | – | – | –
6 | Cc1c(C(=O)NCc2ccc(Cl)c(Oc3cc(Cl)cc(C#N)c3)c2F)oc2ccccc12 [Example 48, N-({4-chloro-3-[(3-chloro-5-cyanophenyl)oxy]-2-fluorophenyl}methyl)-3-methyl-1-benzofuran-2-carboxamide trifluoroacetate] | 10 to 1000 | 10 to 1000 | 10 to 1000 | – | – | –
7 | N#Cc1cc(Cl)cc(Oc2c(Cl)ccc(CNC(=O)c3cc4cc(Cl)ccc4o3)c2F)c1 [Example 49, 5-chloro-N-({4-chloro-3-[(3-chloro-5-cyanophenyl)oxy]-2-fluorophenyl}methyl)-1-benzofuran-2-carboxamide trifluoroacetate] | > 1000 | > 1000 | > 1000 | – | – | –
8 | N#Cc1cc(Cl)cc(Oc2c(Cl)ccc(CNC(=O)c3cc4cc([N+](=O)[O-])ccc4o3)c2F)c1 [Example 50, N-({4-chloro-3-[(3-chloro-5-cyanophenyl)oxy]-2-fluorophenyl}methyl)-5-nitro-1-benzofuran-2-carboxamide trifluoroacetate] | 10 to 1000 | > 1000 | > 1000 | – | – | –
9 | N#Cc1cc(Cl)cc(Oc2c(Cl)ccc(CNC(=O)c3cc4cc(Cl)ccc4s3)c2F)c1 [Example 51, 5-chloro-N-({4-chloro-3-[(3-chloro-5-cyanophenyl)oxy]-2-fluorophenyl}methyl)-1-benzothiophene-2-carboxamide trifluoroacetate] | > 1000 | > 1000 | > 1000 | – | – | –
10 | Cc1ccc2[nH]c(C(=O)NCc3ccc(Cl)c(Oc4cc(Cl)cc(C#N)c4)c3F)c(C)c2c1 [Example 52, N-({4-chloro-3-[(3-chloro-5-cyanophenyl)oxy]-2-fluorophenyl}methyl)-3,5-dimethyl-1H-indole-2-carboxamide trifluoroacetate] | 10 to 1000 | 10 to 1000 | 10 to 1000 | – | – | –
11 | N#Cc1cc(Cl)cc(Oc2c(Cl)ccc(CNC(=O)c3[nH]c4ccccc4c3Br)c2F)c1 [Example 53, 3-bromo-N-({4-chloro-3-[(3-chloro-5-cyanophenyl)oxy]-2-fluorophenyl}methyl)-1H-indole-2-carboxamide] | 10 to 1000 | 10 to 1000 | 10 to 1000 | – | – | –
12 | N#Cc1cc(Cl)cc(Oc2c(Cl)ccc(CNC(=O)c3[nH]c4ccccc4c3Br)c2F)c1 [Example 54, 3-bromo-N-({4-chloro-3-[(3-chloro-5-cyanophenyl)oxy]-2-fluorophenyl}methyl)-1H-indole-2-carboxamide trifluoroacetate] | – | – | – | < 10 | < 10 | < 10
13 | N#Cc1cc(Cl)cc(Oc2c(Cl)ccc(CNC(=O)c3[nH]c4cc(Cl)ccc4c3Cl)c2F)c1 [Example 55, 3,6-dichloro-N-({4-chloro-3-[(3-chloro-5-cyanophenyl)oxy]-2-fluorophenyl}methyl)-1H-indole-2-carboxamide trifluoroacetate] | 10 to 1000 | 10 to 1000 | 10 to 1000 | – | – | –
14 | COc1ccc2[nH]c(C(=O)NCc3ccc(Cl)c(Oc4cc(Cl)cc(C#N)c4)c3F)c(NC(C)=O)c2c1 [Example 56, 3-(acetylamino)-N-({4-chloro-3-[(3-chloro-5-cyanophenyl)oxy]-2-fluorophenyl}methyl)-5-(methyloxy)-1H-indole-2-carboxamide trifluoroacetate] | > 1000 | > 1000 | > 1000 | – | – | –
15 | N#Cc1cc(Cl)cc(Oc2c(Cl)ccc(CNC(=O)c3ccc[nH]3)c2F)c1 [Example 57, N-({4-chloro-3-[(3-chloro-5-cyanophenyl)oxy]-2-fluorophenyl}methyl)-1H-pyrrole-2-carboxamide] | < 10 | 10 to 1000 | < 10 | – | – | –
16 | N#Cc1cc(Cl)cc(Oc2c(Cl)ccc(CNC(=O)c3ncc[nH]3)c2F)c1 [Example 59, N-({4-chloro-3-[(3-chloro-5-cyanophenyl)oxy]-2-fluorophenyl}methyl)-1H-imidazole-2-carboxamide trifluoroacetate] | < 10 | < 10 | < 10 | – | – | –
17 | N#Cc1cc(Cl)cc(Oc2c(Cl)ccc(CNC(=O)c3[nH]c4cc(O)ccc4c3Br)c2F)c1 [Example 61, 3-bromo-N-({4-chloro-3-[(3-chloro-5-cyanophenyl)oxy]-2-fluorophenyl}methyl)-6-hydroxy-1H-indole-2-carboxamide trifluoroacetate] | < 10 | < 10 | < 10 | – | – | –
18 | Cc1cc(C)c(C(=O)NCc2ccc(Cl)c(Oc3cc(Cl)cc(C#N)c3)c2F)[nH]1 [Example 62, N-({4-chloro-3-[(3-chloro-5-cyanophenyl)oxy]-2-fluorophenyl}methyl)-3,5-dimethyl-1H-pyrrole-2-carboxamide trifluoroacetate] | < 10 | < 10 | < 10 | – | – | –
19 | Cn1cnc(C(=O)NCc2ccc(Cl)c(Oc3cc(Cl)cc(C#N)c3)c2F)c1 [Example 64, N-({4-chloro-3-[(3-chloro-5-cyanophenyl)oxy]-2-fluorophenyl}methyl)-1-methyl-1H-imidazole-4-carboxamide trifluoroacetate] | 10 to 1000 | 10 to 1000 | 10 to 1000 | – | – | –

Source: US8304419B2, “Chemical compounds” (priority 2007, dated 2012)
